From PubChem BioAssay AID1159614 (National Center for Advancing Translational Sciences (NCATS), 2016)
Screen size: about 45,000 compounds; about 65 (0.1%) were called active. Calls come from the whole dose curve; as a rule, active = well fitted activation curve with a large enough effect; inconclusive = small, poorly fitted or top-dose-only effect; inactive = no such curve, though single readings can be large or run the other way. Some of the results follow.

Molecular target: Galactocerebrosidase (Homo sapiens) (UniProt P54803)
Experiment: A Novel Cell-Based Assay to Identify Small Molecules for B -Galactocerebrosidase; note: 0% is about no effect; nearly all actives have a fitted effect of over 65% in size
Conditions: 145M-Twi-hGALC-G270D cells, HMU-beta-Gal fluorescence, 48 h; series mostly up to 57.5 µM; activation: at the top concentration
Procedure, shortened: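 qHTS, 1536-well; 145M-Twi-hGALC-G270D cells (WT line also made) in DMEM/F12 + 10% FBS; compound incubation on live cells; HMU-β-gal 0.1 mM final, pH 5.2, NaTC; carbonate stop; fluorescence increase = enhanced residual activity.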

Chain of UniProt P54803 (P54803 whole entry, looked up): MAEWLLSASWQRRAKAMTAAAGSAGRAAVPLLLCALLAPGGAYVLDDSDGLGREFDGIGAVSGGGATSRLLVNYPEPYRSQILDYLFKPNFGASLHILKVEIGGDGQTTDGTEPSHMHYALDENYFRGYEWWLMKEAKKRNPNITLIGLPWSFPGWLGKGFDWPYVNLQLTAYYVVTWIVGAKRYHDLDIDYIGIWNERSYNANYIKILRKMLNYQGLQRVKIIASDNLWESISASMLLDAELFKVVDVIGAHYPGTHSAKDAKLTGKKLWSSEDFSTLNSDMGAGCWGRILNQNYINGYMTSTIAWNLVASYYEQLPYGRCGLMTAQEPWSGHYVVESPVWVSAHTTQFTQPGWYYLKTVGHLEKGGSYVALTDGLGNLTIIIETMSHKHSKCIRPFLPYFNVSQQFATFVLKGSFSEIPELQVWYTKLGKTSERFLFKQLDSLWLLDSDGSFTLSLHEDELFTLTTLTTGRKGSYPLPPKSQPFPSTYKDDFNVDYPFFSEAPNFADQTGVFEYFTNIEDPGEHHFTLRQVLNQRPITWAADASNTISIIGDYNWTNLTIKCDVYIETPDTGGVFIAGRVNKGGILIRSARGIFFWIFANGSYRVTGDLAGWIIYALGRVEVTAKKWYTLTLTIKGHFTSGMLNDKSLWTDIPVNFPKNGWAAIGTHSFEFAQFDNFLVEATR

activation, inactive:
CCOC(=O)N1CCN(CCC(=O)Nc2cc(C)ccc2C)CC1 -20.2%
CCn1cc2nc(SCC(=O)Nc3cccc(Cl)c3C)n(Cc3ccc(Cl)cc3)c(=O)c2n1 -8.91%
CCOc1ccc(C(=O)Nc2ccc3nc(SCC(=O)N4CCCC4)sc3c2)cc1 -11%
CCc1ccc(CNC(=O)c2cnc3sc(N4CCCCCC4)nn3c2=O)cc1 -0.908%
CCC1CCCCN1C(=O)CSc1nc(-c2ccc(OC)cc2)cc(C(F)(F)F)n1 (stereo unspecified) -6.72%
CCCCCCCCCCCCOS(=O)(=O)O -17.7%
COC(=O)c1cc(NC(=O)CCc2c(C)nc3nc(C)nn3c2C)cc(C(=O)OC)c1 -23.4%
CCN1C(=O)c2ccccc2S(=O)c2ccc(C(=O)N3CCN(c4cccc(Cl)c4)CC3)cc21 (stereo unspecified) -12.8%
O=C(Cc1ccc(F)cc1)NCCc1csc2nc(-c3ccc(Cl)cc3)nn12 -2.57%
CCOc1ccc(NC(=O)Cn2cc(C(=O)c3ccccc3)c(=O)c3cc(OC)ccc32)cc1 -16.9%
Cc1ccc2c(c1)-c1onc(C(=O)N(C)c3ccc(F)cc3)c1CO2 -3.95%
CCOC(=O)Cn1c(=O)cc(C)c2c(C)nn(-c3cccc(F)c3)c21 -26.4%
Cc1cccc(CC(=O)Nc2cccc(-c3cn4cccnc4n3)c2)c1 -7.31%
CC1=C(C(=O)Nc2ccccc2C)C(c2ccc[nH]2)n2ncnc2N1 (stereo unspecified) -17.3%
Cc1ccc(-n2ncc3c(=O)n(Cc4cccc(C(F)(F)F)c4)cnc32)cc1C -13.3%
CCCCn1c(SCc2ccccc2C#N)nc2c(sc3ccccc32)c1=O -14.3%
Cc1cccc(NC(=O)c2cc3c(C)nn(-c4ccccc4)c3s2)c1 -5.99%
O=C(CCc1nnc2n(Cc3ccccc3Cl)c(=O)c3ccccc3n12)Nc1ccccc1 -13.6%
CCCCN(c1ccccc1)S(=O)(=O)c1cc2c3c(c1)C(C)C(=O)N3CCC2 (stereo unspecified) -8.39%
COc1ccc(NC(=O)c2ccc(-c3nc(CSc4ccccc4)c(C)o3)cc2)c(OC)c1 -0.345%
O=C(NCc1ccc2c(c1)CCN2C(=O)c1ccncc1)c1cccc(F)c1 -6.75%
CCOC(=O)c1[nH]c(C)c(C(=O)NCc2ccccc2Cl)c1C -8.17%
Fc1ccc(-n2ncc3c(NCCCc4ccccc4)ncnc32)cc1 -5.54%
Cc1ccc(COC(=O)c2ccc(-c3nnn(Cc4ccc(C)cc4)n3)cc2)cc1 -18.1%
O=c1cc(-c2ccccc2)nc(SCc2nc(-c3cccc(C(F)(F)F)c3)no2)[nH]1 -18%
CCN(CCCNC(=O)CN1N=C(c2ccc(C)cc2)CCC1=O)c1ccccc1 -17.4%
Cc1ccn2c(=O)c(NC(=O)c3cccc([N+](=O)[O-])c3C)c(C)nc2c1 -16.3%
CCOc1ccc(C2c3[nH]c4ccccc4c3CCN2C(=O)CCC2CCCC2)cc1 (stereo unspecified) -14.3%
CCOC(=O)C1CCCN(S(=O)(=O)c2cc(Br)cc3c2N(C(=O)CC)CC3)C1 (stereo unspecified) -4.48%
CN1CCC(=C2c3ccccc3CC(=O)c3sccc32)CC1 -11.9%
CC(=O)C(Sc1nc(-c2ccccc2Cl)nc2c1c(=O)n(C)c(=O)n2C)C(=O)N(C)C (stereo unspecified) -12.5%
CCCCN(CC)C(=O)Cn1cc2c(n1)-c1c(oc(C(=O)N3CCCC3)c1C)CC2 -8.6%
COc1cc(NC(=O)C2CCN(S(=O)(=O)c3c(C)noc3/C=C/c3c(C)cc(C)cc3C)CC2)cc(OC)c1 -13.3%
COc1ccc(OC)c(CNc2ncc(-c3ccc(Cl)cc3)n2C)c1 -11.3%
Cc1cccc(C)c1NC(=O)c1cc2sccc2n1Cc1ccc(F)cc1 -4.62%
CCN(Cc1ccccc1)S(=O)(=O)c1ccc(F)c(C(=O)Nc2ccc(C(C)C)cc2)c1 -12.8%
CCOC(=O)c1cccc(NC(=O)NC2COc3ccccc3C2)c1 (stereo unspecified) -16.8%
Cc1ccc(CNC(=O)c2cn(C)c3ccc(S(=O)(=O)N4CCC(C)CC4)cc3c2=O)cc1 -18%
COc1cccc(C(=O)c2cn(CC(=O)Nc3ccc4c(c3)OCCO4)c3nc(C)ccc3c2=O)c1 -9.93%
Cc1ccc(CNC(=O)CCCn2nc(C)n3c(cc4sccc43)c2=O)cc1 -10%
CCC(=O)N1CCc2cc(S(=O)(=O)NC(CC(C)C)C(=O)NCc3cccc(OC)c3)ccc21 (stereo unspecified) -21.2%
CCOc1ccc(CC(=O)NCc2ccc3c(c2)CCN3C(=O)c2ccc(F)cc2)cc1OCC -17.7%
CN1CCCC(CC2c3ccccc3Sc3ccccc32)C1 (stereo unspecified) -5.83%
Cc1ccc(Sc2c(C)nn(-c3ccccc3)c2OC(=O)CC(C)C)cc1 -9.92%
COc1ccccc1N1CCN(CC(O)COc2cccc3ccccc23)CC1 (stereo unspecified) 2.25%
O=C(NCCCc1ccccc1)c1ccc2c(c1)sc1nc(-c3ccc(F)cc3)cn12 -20.1%
Cc1ccccc1CN1C(=O)c2ccccc2Sc2ccc(C(=O)NCCCN3CCOCC3)cc21 -2.48%
Cc1cc(C)cc(NC(=O)C2CCCN2S(=O)(=O)c2ccc3c(c2)C(C)(C)C(=O)N3C)c1 (stereo unspecified) -1.5%
COc1ccccc1NC(=O)c1oc2ccccc2c1NC(=O)c1c(F)cccc1F -20.2%
CCOC(=O)C1(C)C=C(Nc2ccc(OC)cc2)C(=O)N1c1ccccc1 (stereo unspecified) -16.3%
CCOC(=O)c1ccc(NC(=O)c2ccc3c(c2)c(C)c(C)n3Cc2ccc(F)cc2)cc1 -0.683%
Cc1cc(C)c(Cn2c3ccccc3c3cnn(CC(=O)NC4CCCCCC4)c(=O)c32)c(C)c1 -11.5%
COc1ccc(Cn2cc(C(=O)c3ccc(Cl)cc3)c(=O)c3cc4c(cc32)OCO4)cc1 -13.9%
CCc1ccc(Nc2nn3c(=O)c4cc5c(cc4nc3s2)OCO5)cc1 2.79%
COc1cc(OC)cc(C(=O)Nc2ccc(S(=O)(=O)N3CCCCC3c3cccnc3)cc2)c1 (stereo unspecified) 18.8%
O=C(Nc1cccc(Cl)c1Cl)c1cc(S(=O)(=O)N2CCC3(CC2)OCCO3)ccc1F -17.4%
Cc1ccc(-n2nc3c(N4CCC(C(=O)N5CCC(C)CC5)CC4)nnc(C)c3c2C)cc1 -1.75%
CC(C)(Sc1cc(C(C)(C)C)c(O)c(C(C)(C)C)c1)Sc1cc(C(C)(C)C)c(O)c(C(C)(C)C)c1 -19.1%
O=C(CSc1oc(-c2ccccc2)nc1S(=O)(=O)c1ccc(Br)cc1)NC1CCCCC1 -11.6%
Cc1ccc(C2=Nc3ccccc3N(CC(=O)NCc3ccc(Cl)cc3)C(=O)C2)cc1C -13.5%
COc1cccc(-c2ccc3c(N)c(C(=O)Nc4ccc(Cl)cc4F)sc3n2)c1 -5.27%
